In patent publication US20190002581A1 (SUTRO BIOPHARMA, published 2019):

T1: cynomolgus EpCAM (Biacore) (cynomolgus monkey, limits assumed)
T1 construct: Construct used for the cyno Biacore measurements is not described; also called Cyno EpCAM (Biacore); cEpCAM
T1 chain: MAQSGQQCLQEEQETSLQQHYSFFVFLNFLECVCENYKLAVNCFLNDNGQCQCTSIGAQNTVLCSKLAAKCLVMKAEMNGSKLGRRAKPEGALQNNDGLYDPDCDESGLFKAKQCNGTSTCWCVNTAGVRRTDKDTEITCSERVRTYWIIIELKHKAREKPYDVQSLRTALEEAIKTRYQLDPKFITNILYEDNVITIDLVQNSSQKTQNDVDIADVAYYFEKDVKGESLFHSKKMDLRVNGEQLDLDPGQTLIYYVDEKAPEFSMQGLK

T2: cynomolgus EpCAM expressed on stably transfected CHO cells (cynomolgus monkey, UniProt Q1WER1 26-314 (rhesus entry))
T2 construct: also called Cyno EpCAM (CHO)
T2 sequence: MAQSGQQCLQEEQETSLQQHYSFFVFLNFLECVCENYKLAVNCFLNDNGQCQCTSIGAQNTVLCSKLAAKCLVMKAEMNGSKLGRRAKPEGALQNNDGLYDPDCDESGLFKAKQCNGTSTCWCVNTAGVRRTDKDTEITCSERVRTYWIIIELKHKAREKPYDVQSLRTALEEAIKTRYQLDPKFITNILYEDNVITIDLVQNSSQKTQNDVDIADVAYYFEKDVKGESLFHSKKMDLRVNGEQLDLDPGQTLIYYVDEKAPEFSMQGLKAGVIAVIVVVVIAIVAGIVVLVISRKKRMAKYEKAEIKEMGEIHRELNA

T3: human EpCAM expressed on cells (stably transfected CHO cells, HCT-116, JIMT1) (human, UniProt P16422 24-314)
T3 construct: also called Human EpCAM (CHO); Human EpCAM (HCT-116)
T3 sequence: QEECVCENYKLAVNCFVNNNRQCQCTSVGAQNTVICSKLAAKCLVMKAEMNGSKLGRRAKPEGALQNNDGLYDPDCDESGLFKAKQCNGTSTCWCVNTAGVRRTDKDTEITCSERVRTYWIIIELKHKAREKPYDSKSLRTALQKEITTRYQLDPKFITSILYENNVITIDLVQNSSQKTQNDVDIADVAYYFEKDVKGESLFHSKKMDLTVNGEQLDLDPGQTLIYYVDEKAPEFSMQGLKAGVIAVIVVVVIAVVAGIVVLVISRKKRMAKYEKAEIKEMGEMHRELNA

T4: human EpCAM-His (analyte of the Biacore experiments) (human, UniProt P16422 24-265)
T4 construct: also called Human EpCAM (Biacore); hEpCAM
T4 sequence: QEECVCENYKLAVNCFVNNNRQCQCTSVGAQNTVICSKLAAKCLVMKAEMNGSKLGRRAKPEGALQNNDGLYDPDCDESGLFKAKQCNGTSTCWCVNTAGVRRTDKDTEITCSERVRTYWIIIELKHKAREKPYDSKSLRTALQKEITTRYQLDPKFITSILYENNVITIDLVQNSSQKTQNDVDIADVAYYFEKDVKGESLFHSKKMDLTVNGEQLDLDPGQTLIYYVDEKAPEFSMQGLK


Assays:
[1] = biological target: T1, cynomolgus EpCAM (Biacore); assay: SPR (Biacore), cyno EpCAM
[2] = biological target: T2, cynomolgus EpCAM expressed on stably …; assay: flow cytometry, CHO cells expressing cyno EpCAM
Procedure: (§1) CHO-k cells were transfected to stably express EpCAM on the cell surface. CHO parental and stably transfected CHO-EpCAM (human, cynomolgus and mouse EpCAM-expressing cells) cells were washed with DPBS, detached with Accutase™ (BD Biosciences; San Jose, Calif.), and resuspended in ice-cold FACS buffer (DPBS buffer supplemented with 0.5% bovine serum albumin).
(§2) A total of 200,000 cells per 96-well were incubated on ice for 60 mins with 100 nM of test antibodies diluted in FACS buffer. Cells were washed twice with FACS buffer and incubated on ice for 30 mins with R-phycoerythrin AffiniPure F(ab′)₂ fragment, goat anti-Human IgG, Fcγ fragment specific secondary detection antibody (Jackson ImmunoResearch Laboratories, West Grove, Pa.) diluted at 1:200 with FACS buffer. Cells were washed twice with FACS buffer, fixed in 4% paraformaldehyde in PBS (Santa Cruz Biotechnology; Dallas, Tex.) for 20 mins on ice in the dark, washed twice with FACS buffer and analyzed using the BD LSR II Flow Cytometer (BD Biosciences; San Jose, Calif.). Data were analyzed using FlowJo (FlowJo, LLC; Ashland, Oreg.) to determine mean fluorescence intensities. Binding constants were calculated using the statistical software, GraphPad Prism (GraphPad Software; La Jolla, Calif.) using the nonlinear regression equation, one site-specific binding with Hill slope. Secondary antibody alone was used as a control, in addition to measuring non-specific EpCAM antibody binding to CHO parental cells. For some variants, binding to human tumor cells, HCT 116 and JIMT1 cells were also evaluated.

[3] = biological target: T3, human EpCAM expressed on cells (stably …); assay: flow cytometry, CHO cells expressing human EpCAM
Procedure: as §1, §2

[4] = biological target: T4, human EpCAM-His (analyte of the Biacore …); assay: SPR (Biacore), scFv-Fc captured on anti-FLAG, human EpCAM-His as analyte, 25 C
Procedure: Monoclonal Anti-FLAG M2 IgG (Sigma-Aldrich # F9291) was immobilized onto a CMS chip (GE Life Sciences) using amine coupling chemistry (from Amine Coupling Kit, GE Life Sciences). The immobilization steps were carried out at a flow rate of 25 μL/min in 1×HBS-EP+ buffer (GE Life Sciences; 10× Stock diluted before use). The sensor surfaces were activated for 7 min with a mixture of NHS (0.05 M) and EDC (0.2 M). The Anti-Flag M2 IgG was injected over all 4 flow cells at a concentration of 25 μg/mL in 10 mM sodium acetate, pH 4.5, for 7 min. Ethanolamine (1 M, pH 8.5) was injected for 7 min to block any remaining activated groups. An average of 12,000 response units (RU) of capture antibody was immobilized on each flow cell.
Off-rate and Kinetic binding experiments were performed at 25° C. using 1×HBS-EP+ buffer. Test and control antibodies were injected over the Anti-FLAG surface at concentrations of 5-10 μg/mL for 12 seconds at a flow rate of 10 μL/min on flow cells 2, 3 and 4, followed by a buffer wash for 30 seconds at the same flow rate. Kinetic characterization of antibody samples was carried out with a single concentration of antigen (for off-rate ranking) or a 1:2 dilution series of antigen (for kinetic characterization) and 1 injection of 0 nM antigen. After capturing ligand (antibody) on the anti-FLAG surface, the analyte (human EpCAM-His) was bound at 50, 25, 12.5, 6.25 and 0 nM for 180 seconds, followed by a 600 second dissociation phase at a flow rate of 50 μl/min. Between each ligand capture and analyte binding cycle, regeneration was carried out using 2 injections of 10 mM glycine pH 2.0 for 30 seconds at 30 μL/min, followed by a 30 second buffer wash step.
The data were fit with the Biacore T200 Evaluation software, using a 1:1 Langmuir binding model. KD (affinity, nM) was determined as a ratio of the kinetic rate constants calculated from the fits of the association and dissociation phases.

Row | Binder | Kd [1] | Kd [2] | Kd [3] | Kd [4] | koff [4] | kon [4]
1 | SRP1557-E07 scFv-Fc antibody (Fc fusion, scFv-Fc format; the entry holds scFv, IgG1 Fc, FLAG and His tags) MEVQLLESGGGLVQPGGSLRLSCAASGFTFSGSSMSWVRQAPGKGLEWVGAIDGGEGSTGYADSVKGRFTISRDNSKNTLYLQMNSLRAEDTAVYYCAKGWHPQTLYDLDYWGQGTLVTVSSGGGGSGGGGSGGGGSEIVLTQSPGTLSLSPGERATMSCRASQVLSSSSLAWYQQKPGQAPRLLIYGASSRATGIPDRFSGSGSGTDFALTISRLEPEDFAVYYCQQRAAPPPTFGQGTKVEIKAAGSDQ[letters of human IgG1 Fc with changes omitted]GSGDYKDDDDKGSGHHHHHH | 8.1 nM | 0.9 nM | 1.54 nM | 6.17 nM | 0.00158 s⁻¹ | 256000 M⁻¹ s⁻¹
2 | SRP1557-E08 scFv-Fc antibody (Fc fusion, scFv-Fc format; the entry holds scFv, IgG1 Fc, FLAG and His tags) MEVQLLESGGGLVQPGGSLRLSCAASGFTFRASSMSWMRQAPGKGLEWVGAIDGGVGSTGYADSVKGRFTISRDNSKNTLYLQMNSLRAEDTAVYYCAKGWHPQTLYDLDYWGQGTLVTVSSGGGGSGGGGSGGGGSEIVLTQSPGTLSLSPGERATLSCRASQGDSSSVLAWYQQKPGQAPRLLIYGASSRATGIPDRFSGSGSGTDFTLTISRLEPEDFAVYYCQQLVPSPPTFGQGTKVEIKAAGSDQ[letters of human IgG1 Fc with changes omitted]GSGDYKDDDDKGSGHHHHHH | 7.52 nM | 1.2 nM | 1.17 nM | 2.75 nM | 0.00079 s⁻¹ | 288000 M⁻¹ s⁻¹
3 | SRP1557-F02 scFv-Fc antibody (Fc fusion, scFv-Fc format; the entry holds scFv, IgG1 Fc, FLAG and His tags) MEVQLLESGGGLVQPGGSLRLSCAASGFTFRGSSMSWVRQAPGKGLEWVGAIDGGEGSTGYADSVKGRFTISRDNSKNTLYLQMNSLRAEDTAVYYCAKGWHPQTMYNLDYWGQGTLVTVSSGGGGSGGGGSGGGGSEIVLTQSPGTLSLSPGERATLSCRASQSVSSSYLAWYQQKPGQAPRLLIYGASSRATGIPDRFSGSGSGTDFTLTISRLEPEDFAVYYCQQLFNSPPTFGQGTKVEIKAAGSDQ[letters of human IgG1 Fc with changes omitted]GSGDYKDDDDKGSGHHHHHH | 29.1 nM | 0.9 nM | 1.91 nM | 1.49 nM | 0.000254 s⁻¹ | 170000 M⁻¹ s⁻¹
4 | SRP1557-F03 scFv-Fc antibody (Fc fusion, scFv-Fc format; the entry holds scFv, IgG1 Fc, FLAG and His tags) MEVQLLESGGGLVQPGGSLRLSCAASGFTFSGSSMSWVRQAPGKGLEWVGAIAGGGGSTGYADSVKGRFTISRDNSKNTLYLQMNSLRAEDTAVYYCAKGWHPQTLYDLDYWGQGTLVTVSSGGGGSGGGGSGGGGSEIVLTQSPGTLSLSPGERATLSCRASQSVKTSDLAWYQQKPGQAPRLLIYGASSRATGIPDRFSGSGSGTDFTLTISRLEPEDFAVYYCQQLVSKPPTFGQGTKVEIKAAGSDQ[letters of human IgG1 Fc with changes omitted]GSGDYKDDDDKGSGHHHHHH | 8.59 nM | 0.66 nM | 1.5 nM | 5.24 nM | 0.001 s⁻¹ | 192000 M⁻¹ s⁻¹
5 | SRP1557-G01 scFv-Fc antibody (Fc fusion, scFv-Fc format; the entry holds scFv, IgG1 Fc, FLAG and His tags) MEVQLLESGGGLVQPGGSLRLSCAASGFTFSVTSMSWMRQAPGKGLEWVGAIAGGEGSTGYADSVKGRFTISRDNSKNTLYLQMNSLRAEDTAVYYCAKGWHPQTLYDLDYWGQGTLVTVSSGGGGSGGGGSGGGGSEIVLTQSPGTLSLSPGERATMSCRASQVLSSSSLAWYQQKPGQAPRLLIYGASSRATGIPDRFSGSGSGTDFTLTISRLEPEDFAVYYCQQLVTSPPTFGQGTKVEIKAAGSDQ[letters of human IgG1 Fc with changes omitted]GSGDYKDDDDKGSGHHHHHH | 4.41 nM | 1.79 nM | 1.79 nM | 3.5 nM | 0.00123 s⁻¹ | 351000 M⁻¹ s⁻¹
6 | SRP1557-G03 scFv-Fc antibody (Fc fusion, scFv-Fc format; the entry holds scFv, IgG1 Fc, FLAG and His tags) MEVQLLESGGGLVQPGGSLRLSCAASGFTFGGSSMSWVRQAPGKGLEWVGAIGGGEGYTGYADSVKGRFTISRDNSKNTLYLQMNSLRAEDTAVYYCAKGWHPQTLYDLDYWGQGTLVTVSSGGGGSGGGGSGGGGSEIVLTQSPGTLSLSPGERATLSCRASQSVHSSYLAWYQQKPGQAPRLLIYGASSRATGIPDRFSGSGSGTDFTLTISRLEPEDFAVYYCQQLLSSPPTFGQGTKVEIKAAGSDQ[letters of human IgG1 Fc with changes omitted]GSGDYKDDDDKGSGHHHHHH | 162 nM | 1.38 nM | 1.91 nM | 6.91 nM | 0.00175 s⁻¹ | 254000 M⁻¹ s⁻¹
7 | SRP1557-G06 scFv-Fc antibody (Fc fusion, scFv-Fc format; the entry holds scFv, IgG1 Fc, FLAG and His tags) MEVQLLESGGGLVQPGGSLRLSCAASGFTFSGFSMSWVRQAPGKGLEWVGAIDGGEGSTGYADSVKGRFTISRDNSKNTLYLQMNSLRAEDTAVYYCAKGWHPQTLYHLDYWGQGTLVTVSSGGGGSGGGGSGGGGSEIVLTQSPGTLSLSPGERATLSCRASQSIPSSYLAWYQQEPGQAPRLLIYGASSRATGIPDRFSGSGSGTDFTLTISRLEPEDFAVYYCQQLATSPPTFGQGTKVEIKAAGSDQ[letters of human IgG1 Fc with changes omitted]GSGDYKDDDDKGSGHHHHHH | 15.2 nM | 1.62 nM | 2.47 nM | 6.7 nM | 0.000939 s⁻¹ | 140000 M⁻¹ s⁻¹
